Assay results: paper PMC12136788
Some of the results follow.

T1: UNK ZnF1-3 (human, UniProt Q9C0B0 31-174)
T1 sequence: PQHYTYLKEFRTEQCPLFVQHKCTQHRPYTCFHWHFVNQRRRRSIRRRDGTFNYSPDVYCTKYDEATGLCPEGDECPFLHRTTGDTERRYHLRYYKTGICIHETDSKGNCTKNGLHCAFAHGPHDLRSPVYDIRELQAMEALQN

B1: chr5:68661279:68661280:-_ENSG00000085231_ENST00000217893|hu_mus|motif|central (ssRNA)
RNA: GGGAGUUCUACAGUCCGACGAUCACCUGAAUAUGGCUUGAUCAGUGGCAAAGGGGUUUGAUUUCUUUGUCGUGCAAUAUCGGAUAAGAAAUCUCUCGGGGGUGGAGAAGUGAAAGACUGGUCAGCACGGCACUGGAUUGCCAGCAACAGAGGAUUGAGCAUCA
B2: chr8:42417948:42417949:+_ENSMUSG00000031592_ENSMUST00000045218|mus_mus|motif|central (ssRNA)
RNA: GGGAGUUCUACAGUCCGACGAUCUUCUAGUUACUAACAAUGUCUGAACUGUGUAUACAGUCUGAGUUAUUAACAUGUUCGGAGACCACUGAGAUUCAUCUGCUUUAUUCGCACACAAGAGCAGGAACUACAAGAACAUCAGACCAACAGAGGAUUGAGCAUCA
B3: chr17:60770872:60770873:+_ENSG00000011028_ENST00000303375|hu_hu|hu_hu_hu_mus_True|48_108 (ssRNA)
RNA: GGGAGUUCUACAGUCCGACGAUCUCUCUUUUCUUUUAAAAAAAAAGACAAACAAUAAUAGCACAUUUCGAGAAUCAAGAACUACAAAGAAAGGGCCGCUUUGAGUUUUUGUUCACAUCGUCCUGCACUGGGACACGGGGACUGCAACAGAGGAUUGAGCAUCA
B4: chr1:60041781:60041782:+_ENSMUSG00000041040_ENSMUST00000036540|mus_hu|mus_mus_mus_hu_False|48_58 (ssRNA)
RNA: GGGAGUUCUACAGUCCGACGAUCAAGUUUACAAUAGUAAAGUAAAUGCAGUAGUGGCAAAUUUUCUUUUAUUUUCCUUCCUAAAAGAAAACCUCAGUAACCCAGUCCUAGUCUUGGACAUAGUGAAAGCUAUAAAUUCUGACUCAACAGAGGAUUGAGCAUCA
B5: chr12:79975562:79975563:+_ENSMUSG00000021116_ENSMUST00000071230|mus_mus|motif|central (ssRNA)
RNA: GGGAGUUCUACAGUCCGACGAUCGAAUUUGUCCUCACAUUUGAUUGCUUCCUCUGGAGAAACUCUUCUUUUUGACAAAUCGGUAUAUCCUUUUUCUUUAUCCACUCUAAUGACAACAACACAUUCAUUUCUGCCAAUUCGGAUCAACAGAGGAUUGAGCAUCA
B6: chr1:163117127:163117128:-_ENSG00000143248_ENST00000313961|hu_mus|hu_hu_hu_mus_False|38_108 (ssRNA)
RNA: GGGAGUUCUACAGUCCGACGAUCUGCGGGUUAUUAUGUAACUCAACUCACAGGGCAACUUUUGGAAGCCUGACCAGAUGACUACUUGAUUAGCUCCUGAUAAAACUCAGAGCGCACAAAGCGGGGCAGAGAAUCCUUCUCCAUCAACAGAGGAUUGAGCAUCA
B7: chr4:57860909:57860910:+_ENSG00000047315_ENST00000314595|hu_mus|motif|central (ssRNA)
RNA: GGGAGUUCUACAGUCCGACGAUCAUCUGUUAAGCCAUUUAACAGGCAGUAGGUGGAGCGCAGCAUAAUUGGAAUUUUCCCGGUGAACGUUUUCUGGUGCUGAGUCUGCAGCUGUUCUUCACCUUCUUUAAUGACUGUCUUUGUCAACAGAGGAUUGAGCAUCA
B8: chr18:33747085:33747086:+_ENSG00000134759_ENST00000351393|hu_hu|motif|central (ssRNA)
RNA: GGGAGUUCUACAGUCCGACGAUCAGACCAAAUAAUUCUACUGUGCACAGAAGUAAUUUUGUUGGUGAAGGCAAAAAGACGGAAAACUGGCUCGAACUCAGGUGAGAUUGUAUCCUGCUUUUUCCACAAUGACCAGGUUCGAUCCAACAGAGGAUUGAGCAUCA
B9: chr16:94690093:94690094:+_ENSMUSG00000040785_ENSMUST00000117648|mus_hu|mus_mus_mus_hu_True|48_98 (ssRNA)
RNA: GGGAGUUCUACAGUCCGACGAUCGGGCUGGGAUGACAGCAGACAGCCCUCGAUUCCAGGGGGAAAAAGUCUUAGUCGAUACUAAUUUAAAAAGUAUAAUGAUUUUUGAAAAUCAGAUUACAUCUAUAAAAGAUGAAAAGCAAACAACAGAGGAUUGAGCAUCA
B10: chr5:145543945:145543946:-_ENSG00000133706_ENST00000545646|hu_hu|hu_hu_hu_mus_True|58_68 (ssRNA)
RNA: GGGAGUUCUACAGUCCGACGAUCCUGAACGGCCAGUGGUGGGAAAUAAUCAAGCCAGUGCUCUGCUUCAGAAAAUUUUACUAUCUCGUCAUCAGAGAGCCCAAGGGAUUUCAUAAUGUCCCACUGGUACUUAGAAGAUCCUGCCAACAGAGGAUUGAGCAUCA
B11: 104573229_104573349_1377_3pUTR_ENSG00000166272_ENST00000448841|human|control|control (ssRNA)
RNA: GGGAGUUCUACAGUCCGACGAUCGAGAUGGAGUUAGGGUAUGAGGAAUGAGUCACAGAACCAACUUAGCCCUCCACAACACUGUGCCCUUGUGGAGGAAGAGGCAUCCACACCCCGAACUGUACCUGGAGAUGGAGGAAAAUGCAACAGAGGAUUGAGCAUCA
B12: 94799348_94799709_406_CDS_ENSMUSG00000001506_ENSMUST00000001547|mouse|control|control (ssRNA)
RNA: GGGAGUUCUACAGUCCGACGAUCAGGGUCUCCCUUGGGUCCCUCGACUCCUACAUCUUCUGAGUUUGGUGAUACGUAUUCUUCCGGGCAGAAAGCACAGCACUCGCCCUCCCGUCUUUGGGGGUUGGGACAGUCCAGUUCUUCCAACAGAGGAUUGAGCAUCA
B13: chr7:141450121:141450122:+_ENSG00000106028_ENST00000265304|hu_mus|hu_hu_hu_mus_True|1_108 (ssRNA)
RNA: GGGAGUUCUACAGUCCGACGAUCUCAUCCUUUCUACGCCUUUUCUUUUGUCUGGUCACUCAGAAAUAUAAUGUUAUCAGCUAUGAUUGUUGUUGCUUGCCGCCUCACAUUGUUUUUAUCCAUGUACUCGCCAUAGUCUAUUUUCAACAGAGGAUUGAGCAUCA
B14: chr15:96202663:96202664:+_ENSMUSG00000033237_ENSMUST00000096250|mus_hu|FALSE|FALSE (ssRNA)
RNA: GGGAGUUCUACAGUCCGACGAUCUAUACUGCUCACAGAUGAACCACCCAAAGUUAAUACAGGUCCAUUAGAAAUUCUUUCUAGUUGAUCACCUUUGGCAGUAUCUUGCUGAGUGAUAUCUAAAGUCCCUUGUGGUUCCAUUGGCAACAGAGGAUUGAGCAUCA
B15: chr14:57341393:57341394:-_ENSMUSG00000021938_ENSMUST00000022507|mus_mus|motif|central (ssRNA)
RNA: GGGAGUUCUACAGUCCGACGAUCUAUGAAUAGUGAGACUCUAUAUGAAAUGUAAGCAACAACUCUAACUUACACAGGAUCGGUGGUUUAUACAAUCUUAACCCCCAUGCCUCCCACCCACUAGUAUACUACAGUAUGUGUCCCCAACAGAGGAUUGAGCAUCA
B16: chr8:25296883:25296884:-_ENSG00000104756_ENST00000221200|hu_hu|motif|central (ssRNA)
RNA: GGGAGUUCUACAGUCCGACGAUCGUAGUUCAAAAUGGGUUCGAAGUACUCAGGACUUCGGUCAAUUAAGAAAGCUCCUCGGUGAUCUUGCUUAUUUCCCCAGACACCUUUGUCCUUAAACAUGUGGGCCAGCAUACUGUCAGGCAACAGAGGAUUGAGCAUCA
B17: 117006022_117006142_4083_3pUTR_ENSMUSG00000027351_ENSMUST00000028829|mouse|control|control (ssRNA)
RNA: GGGAGUUCUACAGUCCGACGAUCGGAUUAAACUGUCCAUCUAAUUCACAAAGAGACUCAUUAACAUUAUAUCAUCAGUUUCUUUUCUGGACUGGCUUGAAUUCAUGUGUGCUAAUUACAAAAAUCCAAGGUUAAAAAAAAAACCAACAGAGGAUUGAGCAUCA
B18: chr9:95013113:95013114:-_ENSG00000196305_ENST00000443024|hu_hu|hu_hu_hu_mus_False|18_98 (ssRNA)
RNA: GGGAGUUCUACAGUCCGACGAUCCUCAGUCAGAAAGGGUGUGUAGGGGGCCAUCAGUCUGCACAGAGAAAGCAGGACACUGAACAGUGUCUCCAGAGCCAUGACACAGUCUUCCACCCCAUUUUCACCCUUUAACCUCCUCCUCAACAGAGGAUUGAGCAUCA
B19: 52133985_52137179_1883_CDS_ENSG00000112118_ENST00000229854|human|control|control (ssRNA)
RNA: GGGAGUUCUACAGUCCGACGAUCAAUCAGAGUUUCCAGUGUUCGGGCUGUAACUGGAGAUGUCCUGGCGGUGUCUGAGCUCAUGCUAUCCUGGCUGCGCAGGCGUGAAUACUCUUCUGCAAUGUAGGUGGCCGACUCCUGUGUCAACAGAGGAUUGAGCAUCA
B20: chr22:19452774:19452775:-_ENSG00000070010_ENST00000399523|hu_hu|hu_hu_hu_mus_False|38_88 (ssRNA)
RNA: GGGAGUUCUACAGUCCGACGAUCCUUCUCAUUGUAGUUGAUAGCAAUCACAUCCCCAGUCGUCAGACAGGCGAAGUUUCUCAAUGCAUUUUCUAAUACGGCUUUGGGGUUGGUAAUAUCCAGGAAGUCUGGGCUCUGAGGCUGCAACAGAGGAUUGAGCAUCA
B21: 94228602_94229594_564_CDS_ENSMUSG00000041912_ENSMUST00000166032|mouse|control|control (ssRNA)
RNA: GGGAGUUCUACAGUCCGACGAUCUGAGAUUUUUAUAAGUCGUGAGAGUAGUAACGUUCCCUCUGAUUCUUUGUCGCAAGUGAUUUUGGCUCCAGAAGCCUUACAGAUAGAACGAAUCGUCUCACCGCCUCUCCCUAUGAUUCUCAACAGAGGAUUGAGCAUCA
B22: chr1:171882756:171882757:-_ENSMUSG00000026675_ENSMUST00000027989|mus_mus|FALSE|FALSE (ssRNA)
RNA: GGGAGUUCUACAGUCCGACGAUCGAGGAAAAACAAGAAGUAGAAGUCCUACCCAGUGGCAUUGCCCCUCCGUGCUGAGACUAAAAGAAGCUUCAGGCUGUACUGUGUCCCCAUCACACAAGUCAAAACUACUGGGCUCUAGGACAACAGAGGAUUGAGCAUCA

Target: T1, UNK ZnF1-3
Assay: nsRBNS (natural sequence RNA bind-n-seq); RBNS binding buffer (assumed for nsRBNS): 25 mM Tris pH 7.5, 150 mM KCl, 3 mM MgCl2, 0.01% Triton X-100, 500 ug/ml BSA, 20 U/ml SUPERase-In, 4 C; UNK is unkempt and MSI1 is Musashi-1; names of the RNAs are library labels; protein concentration not given here; high values mean tight binding

First: B1
Second: B2
The binding signal of the first is lower: 1.14 enrichment R for the first, 1.39 enrichment R for the second.

Compared with B3, B4 is lower in binding signal: 1.23 enrichment R for the first, 0.864 enrichment R for the second.

Going from B5 to B6, the binding signal rises from 0.69 enrichment R to 0.831 enrichment R.

Going from B7 to B8, the binding signal rises from 0.599 enrichment R to 1.45 enrichment R.

Compared with B9, B10 is lower in binding signal: 1.47 enrichment R for the first, 1.16 enrichment R for the second.

Compared with B11, B12 is lower in binding signal: 2.15 enrichment R for the first, 0.893 enrichment R for the second.

Compared with B13, B14 is lower in binding signal: 0.4 enrichment R for the first, 0.372 enrichment R for the second.

Compared with B15, B16 is lower in binding signal: 1.11 enrichment R for the first, 1.1 enrichment R for the second.

Going from B17 to B18, the binding signal rises from 1.08 enrichment R to 1.1 enrichment R.

Compared with B19, B20 is higher in binding signal: 0.738 enrichment R for the first, 0.911 enrichment R for the second.

First: B21
Second: B22
The binding signal of the first is lower: 0.614 enrichment R for the first, 0.945 enrichment R for the second.
